Values joined by “and” are separate entries in the source; they are usually repeats but may differ in a detail not shown here. Equal entries are not always repeated. The list shows a part of the results. These are further read-outs of the screen, such as a control signal, another cell line or another target. No call is given for them. For some assays here: The list favours compounds with an active or inconclusive main result. For some assays here: Potencies come from curve fits of mixed quality, noted in brackets.
Legend:
[1] = qHTS Assay for Lipid Storage Modulators (AID 1519); conditions: Drosophila S3 cells, BODIPY lipid droplet/cell ratio, laser cytometry, cells loaded with oleic acid
Outline: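 Cells seeded at 5,000 per well were treated with compounds over a concentration series and loaded with oleic acid (400 uM, as added). Lipid droplet fluorescence (488 nm excitation, 500-530 nm channel) was read by laser-scanning cytometry and normalized to 20 uM Triacsin C.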

[2] = qHTS Assay for Modulators of Human Peripheral Myelin Protein 22 (PMP22) Expression/Activity (AID 1967); conditions: Cell-based PMP22 reporter, dual-color luciferase ratio
Outline: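 MSC80 mouse Schwann cells stably carrying Pmp22 promoter–green click beetle luciferase plus EF-alpha–red luciferase control were dosed for 24h at 37 °C. Dual-colour luminescence was filter-overlap corrected; %Activity came from green/red ratio versus untreated cells.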

[3] = qHTS Assay for Inhibitors of PDE-IV (AID 607); conditions: HEK293 ACTOne CNG channel cells, membrane potential fluorescence; measured here: parental cell counter-screen;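 also: parental cells stimulated with forskolin 10 µM plus RO 20-1724 100 µM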
Outline: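 Live HEK293 cells with a modified cyclic nucleotide-gated (CNG) channel report intracellular cAMP via membrane-potential dye fluorescence (ex 535/em 590 nm). Endogenous PDE-IV was targeted. Compounds were tested at up to 22.9 uM final; RO 20-1724 100 uM served as control.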

[4] = qHTS drug screen for cell cycle checkpoint inhibitors in PARPi-resistant BRCA-mutant ovarian cancer cell lines. (AID 1963452); conditions: PEO1/OlaR viability, CellTiter-Glo luminescence, 96 h
Outline: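 PEO1, PEO4 and PEO1/OlaR ovarian cancer cells, 600 per well, exposed 96 h at 37C to a dilution series. Viability read by CellTiter-Glo luminescence, normalized to DMSO and empty wells; activity summarized as Z-AUC.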

[5] = qHTS for identification of novel therapeutic agents for treatment of microphthalmiaassociated transcription factor (MiT) renal cell carcinoma (RCC) (AID 1963991); conditions: CellTiter-Glo, 48 h; for z-score: stronger effect = lower value
Outline: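 Viability of three TFE3-fusion renal carcinoma lines measured by CellTiter-Glo after 48 h treatment with each of 1912 compounds at 11 concentrations. Responses scaled between DMSO (100%) and empty wells (0%) before curve fitting.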

[6] = qHTS Validation Assay to Find Inhibitors of Chronic Active B-Cell Receptor Signaling (AID 485345); conditions: ABC-DLBCL cells, chronic BCR signaling reporter; measured here: CBR control luciferase (viability counter)
Outline: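 TMD8 ABC-DLBCL cells with dox-inducible green luciferase–IκBα fusion and red native luciferase; compounds 46 uM–3 nM, 4 h at 37C with doxycycline in 0.5% FBS IMDM. Green/red ratio normalized to basal and 10 uM MG-132.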

[7] = Nrf2 qHTS screen for inhibitors: Validation (AID 493153); conditions: A549 ARE-Fluc reporter, 18-24 h; AC50: CellTiter-Fluor fluorescence read, measured here: cytotoxicity CellTiter-Fluor AC50; viability change: measured here: cytotoxicity max response
Outline: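 A549 cells carrying ARE-firefly luciferase reporter, 5000 cells/well in 5% FBS OPTI-MEM, treated with compound over a concentration series for 18-24 h at 37 C. Luciferase luminescence gave Nrf2 activity; CellTiter-Fluor fluorescence gave viability.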

[8] = qHTS assay for small molecule antagonists of peroxisome proliferator-activated receptor gamma signaling (AID 588537); conditions: HEK293 PPARg-UAS-bla, beta-lactamase ratio, antagonist mode; measured here: W460 blue channel
Outline: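 We seeded GeneBLAzer HEK293 reporter cells at 3000 per well, allowed 6-6.5 h attachment at 37 C, then co-treated with test compound titrations and 50 nM rosiglitazone overnight (16 h). Inhibition was quantified from 460/530 nm emission ratios.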

[9] = qHTS assay for small molecule antagonists of vitamin D receptor signaling (AID 588541); conditions: HEK293T VDR-UAS-bla, beta-lactamase ratio, antagonist mode; measured here: W460 blue channel (cell viability)
[10] = qHTS assay for small molecule agonists of retinoid X receptor alpha signaling (AID 588544); conditions: HEK293T RXRa-UAS-bla, beta-lactamase reporter, 18 h; 530 nm emission
[11] = qHTS assay for small molecule antagonists of retinoid X receptor alpha signaling (AID 588546); conditions: HEK293T RXRa-UAS-bla, beta-lactamase ratio, antagonist mode; measured here: W530 green channel, cytotoxicity proxy;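 also: cells stimulated with 9-cis-retinoic acid as agonist; % is scaled to controls: 0 for no effect and ±100 for the full control effect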
Outline: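 Beta-lactamase reporter inhibition, read as CCF4 fluorescence ratio (ex 405, em 460/530 nm) after 2 h at RT. HEK293T UAS-bla cells, 2500/well, were stimulated with 9-cis-RA at 500 or 100 nM final alongside test compound for 18 h at 37 C.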

[12] = S16 Schwann cell PMP22 intronic element beta-lactamase assay (AID 624044); conditions: S16 rat Schwann cells, PMP22 element beta-lactamase FRET, 24 h; also: nearly all actives have a fitted effect of over 15% in size
Outline: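 Rat S16 Schwann cells with beta-Lac driven by a PMP22 intronic element, compound-treated 24 h at 37 °C. LiveBLAzer FRET B/G read: 460 nm normalized to potassium clavulanate vs DMSO; 535 nm FRET as viability; concentration-effect curves classified.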

[13] = measured here: cell count channel max response
[14] = measured here: cell number channel AC50
[15] = measured here: lipid (BODIPY) channel AC50
[16] = measured here: lipid channel max response
[17] = measured here: red reporter channel AC50, EF-alpha promoter control reporter in MSC80 mouse Schwann cells
[18] = measured here: PEO1 parental viability
[19] = measured here: green reporter channel AC50, mouse Pmp22 promoter in mouse Schwann cells
Tags tell the direction and shape of the fitted curve.

For `COc1ccc2c(c1)C13CCCCC1C(C2)N(C)CC3` (stereo not given), the max response [1, 13] was -30.2%, the AC50 [1, 14] was 2.82 µM [falling, full curve, poor fit] and the AC50 [1, 15] was 2.82 µM [falling, full curve]. The max response [1, 16] was -31.9% and the AC50 [2, 17] was 9.53 µM [rising, partial curve, poor fit].
For `COc1ccc(C(=O)c2c(C)n(CCN3CCOCC3)c3cc(I)ccc23)cc1`, the AC50 [3] was 12.6 µM [rising, partial curve], the max response [1, 13] was 61.1% and the AC50 [1, 14] was 0.562 µM [rising, full curve]. For the same compound, the AC50 [1, 15] was 0.501 µM [rising, full curve], the max response [1, 16] was 76.4% and the AC50 [4, 18] was 9.77 µM [falling, partial curve]. For the same compound, the AC50 ([4]; measured here: PEO4 viability) was 12.3 µM [falling, partial curve], the z-score ([5]; TFE3-RCC UOK109 viability, measured here: UOK109 Z-AUC) was 0.422 and the z-score ([5]; TFE3-RCC viability, measured here: UOK124 Z-AUC) was 0.566. For the same compound, the AC50 ([5]; TFE3-RCC viability, measured here: UOK124 cell viability) was 37.2 µM [falling, single point], the z-score ([5]; TFE3-RCC viability, measured here: UOK145 Z-AUC) was 0.41 and the AC50 ([5]; TFE3-RCC viability, measured here: UOK145 cell viability) was 20.9 µM [falling, single point].
In the case of `CC[C@@H](CO)NC(=O)[C@H]1C=C2c3cccc4c3c(cn4C)C[C@H]2N(C)C1`, the max response [1, 13] is reported as 44.5%, the AC50 [1, 14] is reported as 14.1 µM [rising, full curve, poor fit] and the AC50 [1, 15] is reported as 14.1 µM [rising, full curve, poor fit]. For the same compound, the max response [1, 16] was 72.8%, the AC50 [2, 19] was 84.9 µM [falling, single point] and the AC50 [2, 17] was 84.9 µM [falling, single point].
For `C[N+](C)(C)CC#CCN1CCCC1=O`, the max response [1, 13] was 56.1%, the AC50 [1, 14] was 39.8 µM [rising, single point] and the AC50 [1, 15] was 39.8 µM [rising, single point]. The max response [1, 16] was 57.3% and the AC50 [2, 17] was 3.01 µM [rising, full curve, poor fit].
With `CNCC(O)c1ccc(O)cc1` (stereo not given) the max response [1, 13] was 20.5%, the AC50 [1, 14] was 2.82 µM [falling, full curve, poor fit] and the AC50 [1, 15] was 2.82 µM [falling, full curve, poor fit]. The max response [1, 16] was 25% and the AC50 [4, 18] was 21.9 µM [rising, single point].
For `CN(C)C(=O)C(CCN1CCC(O)(c2ccc(Cl)cc2)CC1)(c1ccccc1)c1ccccc1`, the max response [1, 13] was -29% and 45.4% and -67.3%, the AC50 [1, 14] was 25.1 µM [rising, partial curve, poor fit] and 10 µM [falling, full curve, poor fit] and the AC50 [1, 15] was 15.8 µM [falling, single point] and 15.8 µM [rising, partial curve, poor fit] and 10 µM [falling, full curve, poor fit]. The max response [1, 16] was -32.6% and 49.2% and -68.9%, the AC50 [2, 19] was 42.6 µM [falling, full curve] and the AC50 [2, 17] was 33.8 µM [falling, full curve]. The AC50 [6] was 29.1 µM [falling, single point].
For `Cc1cc(C(C)(C)C)cc(C)c1CC1=NCCN1`, the max response [1, 13] was 26.1%, the AC50 [1, 14] was 25.1 µM [falling, partial curve, poor fit] and the AC50 [1, 15] was 17.8 µM [falling, partial curve, poor fit]. For the same compound, the max response [1, 16] was 25.6%, the AC50 [2, 19] was 75.7 µM [falling, single point] and the AC50 [2, 17] was 84.9 µM [falling, single point].
With `CC(C)C(=O)Nc1ccc([N+](=O)[O-])c(C(F)(F)F)c1` the max response [1, 13] was -26.6%, the AC50 [1, 14] was 2.51 µM [falling, full curve, poor fit] and the AC50 [1, 15] was 2.51 µM [falling, full curve, poor fit]. The max response [1, 16] was -25.4%, the AC50 [2, 19] was 75.7 µM [falling, partial curve] and the AC50 [2, 17] was 95.3 µM [falling, single point]. The viability change [7] was 3.89%.
With `CC(=O)N1CCN(c2ccc(OC[C@H]3CO[C@](Cn4ccnc4)(c4ccc(Cl)cc4Cl)O3)cc2)CC1` the max response [1, 13] was 16.7% and -16%, the AC50 [1, 14] was 70.8 nM [rising, full curve, poor fit] and 1.41 µM [falling, full curve, poor fit] and the AC50 [1, 15] was 63.1 nM [rising, full curve, poor fit] and 1.58 µM [falling, full curve, poor fit]. For the same compound, the max response [1, 16] was 24.5% and -17.4%, the AC50 [2, 19] was 42.6 µM [falling, full curve] and the AC50 [2, 17] was 42.6 µM [falling, partial curve]. The AC50 [8] was 44.7 µM [falling, partial curve], the AC50 [9] was 44.7 µM [falling, partial curve, poor fit] and the max response [10] was -15.7%. It also gave a max response [11] of -23.5%.
In the case of `c1ccc(CCCCN2CCC(c3ccccc3)CC2)cc1`, the AC50 [3] is reported as 10 µM [rising, partial curve], the max response [1, 13] is reported as 59.5% and the AC50 [1, 14] is reported as 35.5 µM [rising, partial curve, poor fit]. The AC50 [1, 15] was 35.5 µM [rising, partial curve, poor fit] and the max response [1, 16] was 75.1%.
In the case of `O=C1/C(=C\c2ccccc2)C[C@@]2(O)[C@H]3Cc4ccc(O)c5c4[C@@]2(CCN3CC2CC2)[C@@H]1O5`, the AC50 [3] is reported as 20 µM [rising, single point], the max response [1, 13] is reported as 20.5% and the AC50 [1, 14] is reported as 7.94 µM [rising, full curve, poor fit]. For the same compound, the AC50 [1, 15] was 2.51 µM [rising, full curve, poor fit] and the max response [1, 16] was -26%.
For `Cc1cccc([C@H](C)c2cnc[nH]2)c1C`, the AC50 [3] was 15.8 µM [rising, single point], the max response [1, 13] was 122% and the AC50 [1, 14] was 4.47 µM [rising, partial curve]. For the same compound, the AC50 [1, 15] was 7.08 µM [rising, partial curve], the max response [1, 16] was 159% and the AC50 ([12]; measured here: 460 nm blue channel) was 14.1 µM [falling, single point]. The AC50 ([12]; measured here: 530 nm viability channel) was 2.82 µM [falling, partial curve].
